# In publication PMC4336329 (PLoS ONE, 2015):
# The whole screen tested about 310,000 compounds, of which about 14,000 (4.5%) showed an effect of 50% or more. The effect is printed as a negative number. The list shows a part of the results.
# Biological target: human ether-à-go-go-related gene (hERG) potassium channel (human, UniProt Q12809)
# Test: primary screen, population patch clamp on CHO cells stably expressing hERG
# 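Note: peak tail current of the secondary pulse compared with the same well before compound.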
# Chain of human ether-à-go-go-related gene (hERG) potassium channel (Q12809 whole entry, looked up): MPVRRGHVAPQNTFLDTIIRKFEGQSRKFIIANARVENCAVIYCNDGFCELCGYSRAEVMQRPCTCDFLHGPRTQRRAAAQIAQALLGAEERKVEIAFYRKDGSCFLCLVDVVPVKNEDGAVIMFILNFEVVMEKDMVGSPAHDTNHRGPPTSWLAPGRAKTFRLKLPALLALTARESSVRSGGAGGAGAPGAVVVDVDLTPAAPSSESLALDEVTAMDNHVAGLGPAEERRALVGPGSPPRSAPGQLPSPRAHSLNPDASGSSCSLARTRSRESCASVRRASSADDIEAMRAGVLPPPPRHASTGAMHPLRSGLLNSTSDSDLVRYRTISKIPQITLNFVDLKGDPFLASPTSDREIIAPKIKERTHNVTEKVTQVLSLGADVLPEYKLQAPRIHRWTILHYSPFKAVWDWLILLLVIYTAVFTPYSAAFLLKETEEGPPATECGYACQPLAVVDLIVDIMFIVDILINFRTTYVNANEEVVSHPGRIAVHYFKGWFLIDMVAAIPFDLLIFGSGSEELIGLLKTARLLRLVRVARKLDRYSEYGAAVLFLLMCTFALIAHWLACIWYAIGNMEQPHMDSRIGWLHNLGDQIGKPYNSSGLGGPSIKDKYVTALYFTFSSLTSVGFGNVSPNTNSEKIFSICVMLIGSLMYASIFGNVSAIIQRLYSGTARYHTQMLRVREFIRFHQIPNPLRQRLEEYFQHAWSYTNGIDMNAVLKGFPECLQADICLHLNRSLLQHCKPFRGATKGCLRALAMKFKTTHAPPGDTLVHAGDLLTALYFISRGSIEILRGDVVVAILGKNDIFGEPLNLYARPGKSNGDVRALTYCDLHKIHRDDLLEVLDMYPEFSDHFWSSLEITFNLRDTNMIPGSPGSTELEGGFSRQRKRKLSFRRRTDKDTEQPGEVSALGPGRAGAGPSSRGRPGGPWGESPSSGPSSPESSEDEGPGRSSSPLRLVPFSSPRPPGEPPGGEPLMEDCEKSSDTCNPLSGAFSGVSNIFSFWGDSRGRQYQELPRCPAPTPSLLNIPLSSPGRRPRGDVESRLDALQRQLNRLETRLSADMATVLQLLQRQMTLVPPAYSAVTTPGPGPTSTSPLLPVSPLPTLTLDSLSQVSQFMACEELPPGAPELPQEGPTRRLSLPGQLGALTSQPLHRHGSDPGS
row,SMILES,"hERG current change (%, negative = inhibition) at 10uM [%]"
1,CC(=O)O[C@]1(C)C(=O)OC/C2=C/CN(C)CCC(OC(=O)[C@@](O)(C(C)O)C[C@H]1C)C2=O (some centres unmarked),1.77
2,NP(=O)(OCCCc1ccccc1)Oc1ccccc1Cl (centres unmarked),-11.9
3,CSc1ccccc1C(=O)NCC(c1ccco1)N(C)C (centres unmarked),16.9
4,Cc1ccc(-c2nn3c(C)nnc3s2)cc1NC(=O)C(C)C,11.8
5,Clc1ccc(-n2ncc3c(NCC4CCCO4)ncnc32)cc1 (centres unmarked),-0.315
6,COCCN(CC(=O)Nc1ccc(F)cc1)S(=O)(=O)c1ccc(S(=O)(=O)N2CCCC2)cc1,5.49
7,O=C1CC(C(=O)N(c2ccccc2)C(C(=O)NC2CCCC2)c2ccncc2)CS1 (centres unmarked),24.8
8,COc1ccc(SCC(=O)Nc2ccc(N3CCN(C)CC3)c(F)c2)cc1,-49.7
9,Nc1c(N(CCC2=CCCCC2)C(=O)c2ccc([N+](=O)[O-])o2)c(=O)[nH]c(=O)n1Cc1ccccc1,-9.08
10,CCOC(=O)N1CCN(CCC(=O)Nc2cccc(Br)c2)CC1.Cl,-43.1
11,CC(C)Oc1cc2oc(=O)c3c(c2cc1Cl)CCC3,17.6
12,CCOc1ccc(-n2c(SCC(=O)Nc3ccc(OC)cc3)nc3c(c2=O)SCC3)cc1,6.25
13,CCC(C(=O)N1CCOCC1)n1c2ccccc2c2nc(=O)cc(C)n21 (centres unmarked),13
14,CCOc1ccc(NC(=O)C2CCC(C)(C(=O)O)C2(C)C)cc1 (centres unmarked),6.49
15,CN(C(=O)CSc1nnc(-c2ccccc2F)o1)c1ccccc1,-7.07
16,Cc1ccc(S(=O)(=O)N(C)CC(=O)Nc2ccccc2)cc1,-20
17,CCOc1ccc2c(c1)C(c1cccs1)=NNC(c1cccnc1)=N2,-65.4
18,Cc1ccccc1NC(=O)Cc1nnc(SCC(=O)NC2CCCC2)n1C,13.3
19,Cn1c(-c2cc3c(C(F)(F)F)nn(C)c3s2)n[nH]c1=S,16.7

row,SMILES,"hERG current change (%, negative = inhibition) at 10uM [%]"
1,COCCCNC(=O)C1C2C=CC3(CN(Cc4ccc(C)cc4)C(=O)C13)O2 (centres unmarked),2.29
2,COc1ccccc1OCC(=O)N1CCCCCCC1,11
3,COC(=O)c1sccc1NC(=S)N1CCC(C)CC1,9.29
4,O=C(O)CSc1c(-c2ccccc2)c2cc(Cl)ccc2[nH]c1=O,-3.09
5,Cc1cc(C)cc(N(CC(=O)NCc2ccc3c(c2)OCO3)C(=O)CCC(=O)Nc2ccccn2)c1,-6.47
6,CCOc1ccc(NC(=O)CCS(=O)(=O)c2ccc3c(c2)CCCN3C(C)=O)cc1,7.01
7,C/C=C(/C)C(=O)OC1c2c(ccc3ccc(=O)oc23)OC(C)(C)C1OC(=O)/C(C)=C\C (centres unmarked),-12.3
8,CCOC(=O)C1=C(C)NC(C)=C(C(=O)OCC)C1C(=O)OCC(=O)N(C)C1CCS(=O)(=O)C1 (centres unmarked),12.3
9,Cc1cccc(OC(=O)c2sc3ncn(C)c(=O)c3c2C)c1,3.54
10,Cl.O=C(CN1CCOCC1)N1CCc2ccccc2C(c2ccccc2)C1 (centres unmarked),-9.78
11,CCc1ccc2[nH]c(=O)c(CN(CCCN3CCOCC3)C(=O)Nc3ccc(Cl)cc3)cc2c1,-65.6
12,Nc1nc2ccccc2n1C(=O)CCc1ccccc1,21
13,O=Cc1ccc(Oc2cccc(C(F)(F)F)c2)nc1,5.59
14,O=C(Nc1cccc(NC(=O)c2cccs2)c1)c1ccc([N+](=O)[O-])o1,-22.3
15,CC(NC(=O)C1CCCN1S(=O)(=O)c1cccc2nsnc12)c1ccccc1 (centres unmarked),-1.81
16,O=[N+]([O-])c1cccc(S(=O)(=O)Nc2ccc(S(=O)(=O)Nc3nccs3)cc2)c1,13.9
17,CCN1CCN(c2nc3c(C)cccn3c(=O)c2/C=C(\C#N)C(=O)NCCOC)CC1,-3.74
18,CCCCCc1nnc(NC(=O)NS(=O)(=O)c2ccc(C)cc2)s1,18.8
19,COc1cccc(N2C(=O)CC(N3CCN(C(=O)c4ccco4)CC3)C2=O)c1 (centres unmarked),9.29

row,SMILES,"hERG current change (%, negative = inhibition) at 10uM [%]"
1,CCCC(=O)Nc1ccc(C=C(C(C)=O)C(C)=O)cc1,-0.43
2,CO/N=C(\C)C(Cc1ccc(Cl)nc1)Cc1ccc(Cl)nc1,2.67
3,CNC(=O)COC(=O)c1cccnc1SC,3.53
4,CCOC(=O)C1=C(CSc2nc(C)ccc2C#N)OC(N)=C(C#N)C1c1cccc(OC)c1OC (centres unmarked),3.79
5,CCCCCNC(=O)Cc1ccc(OC)cc1,1.41
6,O=[N+]([O-])c1cc(S(=O)(=O)N2CCCC2)ccc1N/N=C1/CCCc2ccccc21,6.93
7,CC1=NN(c2ccccc2)C(=O)/C1=C/c1cccc(C)c1,5.65
8,Nc1nc(SCC(=O)NCc2ccc3c(c2)OCO3)n[nH]1,12.4
9,Cc1ccc(S(=O)(=O)N2CCC(=O)N(CCO)CC2)cc1,6.67
10,CCCOc1ccc(-c2c(C(=O)N/N=C/c3ccc(C)cc3)nnn2-c2nonc2N)cc1,5.24
11,C=CCOc1cccc(C(=O)NC(c2ccccc2)C(C)C)c1 (centres unmarked),6.23
12,O=C(CSc1nc2cc3c(cc2c(=O)n1CCC1=CCCCC1)OCO3)NCc1ccco1,12.8
13,O=C(CCCOc1ccccc1)N1CCN(S(=O)(=O)c2cccs2)CC1,-2.04
14,COc1ccc(Nc2ccccc2)c(C)c1,1.41
15,C=CCNC(=O)COC(=O)COc1ccc(Cl)cc1C,-3.32
16,Cc1cc(C)n2nc(C(=O)OCC(=O)NCc3ccccc3)nc2n1,16.9
17,Cc1ccc(CN2CCSc3ccc(C(=O)NCc4ccco4)cc32)cc1,-14.4
18,COc1ccccc1NS(=O)(=O)c1cccc(C(=O)N/N=C/c2c(CO)cnc(C)c2O)c1,15.1
